This passage reports enrichment ratio results from a collection of fitness landscapes (doi:10.1126/science.1257360).

To fix the notation:
B1: PhoQ; a variant is named by its letters at X, in order, P23837 (parent)
chain: MKKLLRLFFPLSLRVRFLLATAAVVLVLSLAYGMVALIGYSVSFDKTTFRLLRGESNLFYTLAKWENNKLHVELPENIDKQSPTMTLIYDENGQLLWAQRDVPWLMKMIQPDWLKSNGFHEIEADVNDTSLLLSGDHSIQQQLQEVREDDDDAEMTHSVAVNVYPATSRMPKLTIVVVDTIPVELKSSYMVWSWFIYVLSANLLLVIPLLWVAAWWSLRPIEALAKEVRELEEHNRELLNPATTRELTSLVRNLNRLLKSERERYDKYRTTLTDLTHSLKTPLXXLQXXLRSLRSEKMSVSDAEPVMLEQISRISQQIGYYLHRASMRGGTLLSRELHPVAPLLDNLTSALNKVYQRKGVNISLDISPEISFVGEQNDFVEVMGNVLDNACKYCLEFVEISARQTDEHLYIVVEDDGPGIPLSKREVIFDRGQRVDTLRPGQGVGLAVAREITEQYEGKIVAGESMLGGARMEVIFGRQHSAPKDE

Some of the results follow. Bounds are passed on as bounds.

The variants in the assay derive from B1. In words: enrichment ratio after two sorts for PhoP signalling (ratio (wild type AVST 3.29)); higher = more functional. The note with it: with PhoP (E. coli).
For the variant HGAK, the enrichment ratio was not above 0.25. PANK: the enrichment ratio was not above 0.25. For the variant VICH, the enrichment ratio is not above 0.25.

Regarding WNAN, the enrichment ratio was not above 0.25.

Take LMPK: the enrichment ratio was not above 0.25. The result for HLFR reads not above 0.25; that for SQKQ, not above 0.25; that for FIPM, not above 0.25. For RFFR, the enrichment ratio is not above 0.25. As to PWVW, the enrichment ratio was not above 0.25. The result for AASP reads not above 0.25. Regarding HFEL, the enrichment ratio is not above 0.25. Turning to NQYF, the enrichment ratio is not above 0.25. Regarding SRPL, the enrichment ratio is not above 0.25. The result for TNDW reads not above 0.25; that for ITCT, not above 0.25; that for VVHY, not above 0.25. With VQNL, the enrichment ratio is not above 0.25. As to HLFP, the enrichment ratio is not above 0.25. RITH: the enrichment ratio is not above 0.25. LRAK: the enrichment ratio was not above 0.25. As for MEPI, the enrichment ratio is not above 0.25. With KMTP, the enrichment ratio is not above 0.25. As for MQTP, the enrichment ratio is not above 0.25. Take DPPF: the enrichment ratio was not above 0.25. The result for DQYM reads not above 0.25; that for AHKL, not above 0.25. With FDQR, the enrichment ratio was not above 0.25. Turning to LEEI, the enrichment ratio was not above 0.25. The result for QDYW reads not above 0.25; that for TPVW, not above 0.25; that for QGIC, not above 0.25. Turning to DLYP, the enrichment ratio was not above 0.25.

ICCM: the enrichment ratio worked out at 4.92. Regarding LVFP, the enrichment ratio is not above 0.25.

For PFEF, the enrichment ratio is not above 0.25. As to KVNH, the enrichment ratio was not above 0.25. ASRN: the enrichment ratio was not above 0.25.

With AHRS, the enrichment ratio was not above 0.25. Consider MGAQ, for which the enrichment ratio came out at 18.9. In the case of DNDS, the enrichment ratio was not above 0.25. In the case of LMWA, the enrichment ratio was not above 0.25. In the case of WPFE, the enrichment ratio was not above 0.25.

For the variant VIWQ, the enrichment ratio was not above 0.25.

On to NNYF, for which the enrichment ratio was not above 0.25. In the case of QYEI, the enrichment ratio was not above 0.25. The figure for FMCC is 0.575.

With HPMD, the enrichment ratio is not above 0.25. Turning to HMWK, the enrichment ratio was not above 0.25.

For the variant NRPE, the enrichment ratio is not above 0.25. Take NNKY: the enrichment ratio was not above 0.25. The result for VHDQ reads not above 0.25; that for FTKH, not above 0.25. FDHK: the enrichment ratio is not above 0.25. Consider AAAG, for which the enrichment ratio is not above 0.25. Turning to PSWW, the enrichment ratio was not above 0.25.

Take EDIR: the enrichment ratio is not above 0.25. In the case of WEGG, the enrichment ratio was not above 0.25.

Take TMGL: the enrichment ratio was found to be 7.75. On to TQDG, for which the enrichment ratio was not above 0.25. SWHF: the enrichment ratio was not above 0.25. As to YSHV, the enrichment ratio is not above 0.25. For TPAP, the enrichment ratio was not above 0.25. Turning to DNHH, the enrichment ratio was not above 0.25. For the variant LQVN, the enrichment ratio is not above 0.25. As to EDIF, the enrichment ratio is not above 0.25. As to ERMP, the enrichment ratio was not above 0.25. On to WQSM, for which the enrichment ratio was not above 0.25. In the case of KAKQ, the enrichment ratio is not above 0.25. Take WWFP: the enrichment ratio is not above 0.25. In the case of TPSQ, the enrichment ratio was not above 0.25. As to LRVK, the enrichment ratio was not above 0.25. With RGCV, the enrichment ratio is not above 0.25.

For LDWT, the enrichment ratio was not above 0.25. With TLWE, the enrichment ratio was not above 0.25.

Regarding RHIW, the enrichment ratio is not above 0.25. VCNR: the enrichment ratio is not above 0.25. Turning to MIGG, the enrichment ratio was determined as 7.3. On to YLGQ, for which the enrichment ratio was not above 0.25. For SDHQ, the enrichment ratio was not above 0.25. Turning to SPRP, the enrichment ratio was not above 0.25. Consider QMRY, for which the enrichment ratio is not above 0.25. In the case of CVSW, the enrichment ratio is not above 0.25. As to IAHL, the enrichment ratio is not above 0.25.

As for AWIH, the enrichment ratio was not above 0.25.

For the variant IFVR, the enrichment ratio was not above 0.25. Turning to IIIM, the enrichment ratio is not above 0.25.

As for PLRA, the enrichment ratio is not above 0.25. The result for LMTT reads not above 0.25; that for LYIC, not above 0.25. For the variant GLFI, the enrichment ratio was not above 0.25. The result for HLPA reads not above 0.25; that for DHTK, not above 0.25. ARNN: the enrichment ratio is not above 0.25. On to IGSE, for which the enrichment ratio is not above 0.25. For the variant HQIL, the enrichment ratio was not above 0.25.

Take FFFD: the enrichment ratio is not above 0.25. Consider MLPP, for which the enrichment ratio is not above 0.25.

On to EPVR, for which the enrichment ratio was not above 0.25. On to YHAR, for which the enrichment ratio was not above 0.25.

FFAV: the enrichment ratio was not above 0.25. The result for DLRA reads not above 0.25; that for LSWS, not above 0.25.

Take YAQK: the enrichment ratio was not above 0.25. Consider NSNY, for which the enrichment ratio is not above 0.25. Turning to NTDN, the enrichment ratio was not above 0.25. In the case of YSIT, the enrichment ratio amounted to 0.437. Regarding YNRR, the enrichment ratio is not above 0.25. The figure for FTYM is not above 0.25; for IIHH it is not above 0.25. The result for SPDA reads not above 0.25. As for TGHK, the enrichment ratio is not above 0.25. Consider KNGV, for which the enrichment ratio was not above 0.25. As for YVFM, the enrichment ratio was not above 0.25. Take VSSI: the enrichment ratio stood at 6.02.

Consider EGLI, for which the enrichment ratio was 3.9. The figure for YATR is not above 0.25; for FWRI it is not above 0.25; for IFGY it is not above 0.25. As for PTEW, the enrichment ratio was not above 0.25. On to NAKH, for which the enrichment ratio was not above 0.25. For GGKA, the enrichment ratio was not above 0.25. Turning to TPQW, the enrichment ratio is not above 0.25.

Consider MAWR, for which the enrichment ratio is not above 0.25.

Regarding DYRM, the enrichment ratio was not above 0.25. As to SWRG, the enrichment ratio was not above 0.25. Consider FELE, for which the enrichment ratio was found to be 20.4. Take GMAH: the enrichment ratio is not above 0.25. The result for HNVK reads not above 0.25.

Consider PDYH, for which the enrichment ratio is not above 0.25. For the variant LHMI, the enrichment ratio was not above 0.25.

Consider LEIT, for which the enrichment ratio was not above 0.25. On to YTAE, for which the enrichment ratio is not above 0.25. For QAHW, the enrichment ratio is not above 0.25.

For the variant QKPV, the enrichment ratio was not above 0.25. Turning to QLIN, the enrichment ratio was not above 0.25. Turning to TTLD, the enrichment ratio came out at 2.04. Regarding SECQ, the enrichment ratio amounted to 11.4. For the variant WWRG, the enrichment ratio is not above 0.25. For the variant KSER, the enrichment ratio is not above 0.25.

As for RINE, the enrichment ratio was not above 0.25. With RRVW, the enrichment ratio was not above 0.25.

On to LDQN, for which the enrichment ratio is not above 0.25. Take YGPD: the enrichment ratio was not above 0.25.

Consider DDCR, for which the enrichment ratio is not above 0.25. ILQK: the enrichment ratio was found to be 1.02. The figure for SATP is not above 0.25; for DLTS it is not above 0.25. For the variant RPNP, the enrichment ratio was not above 0.25.

Turning to LLDM, the enrichment ratio is not above 0.25. Regarding YTGM, the enrichment ratio is not above 0.25. Consider TYQF, for which the enrichment ratio was not above 0.25. For the variant WPGW, the enrichment ratio was not above 0.25. As to VQPA, the enrichment ratio is not above 0.25. Turning to EPCD, the enrichment ratio is not above 0.25. In the case of STIW, the enrichment ratio came to 1.22. Take SNRK: the enrichment ratio was not above 0.25.

On to VRCL, for which the enrichment ratio is not above 0.25. For HYVL, the enrichment ratio amounted to 0.873. As to FAMD, the enrichment ratio was not above 0.25.

On to FTNT, for which the enrichment ratio is not above 0.25.

For QSTI, the enrichment ratio worked out at 1.77.

As for GMMY, the enrichment ratio was not above 0.25.

For DWVD, the enrichment ratio was not above 0.25.

With YDPQ, the enrichment ratio is not above 0.25. Turning to AHII, the enrichment ratio is not above 0.25. On to IATR, for which the enrichment ratio is not above 0.25.

As for AWKH, the enrichment ratio was not above 0.25.

AKDP: the enrichment ratio is not above 0.25. As for ENSI, the enrichment ratio is not above 0.25. With HPLQ, the enrichment ratio is not above 0.25. As to MYTW, the enrichment ratio was not above 0.25. The figure for TQFT is 2.65.

Consider STSY, for which the enrichment ratio came out at 11.6.

Regarding RGCC, the enrichment ratio was not above 0.25.

SYAA: the enrichment ratio is not above 0.25. Regarding GPLE, the enrichment ratio was not above 0.25. The result for QHYT reads not above 0.25; that for MTLL, 10.3. The figure for IILR is not above 0.25; for NYFV it is not above 0.25. In the case of TQMQ, the enrichment ratio worked out at 24.2.

Regarding PPQF, the enrichment ratio is not above 0.25.

Take MYEA: the enrichment ratio was not above 0.25. For MDKV, the enrichment ratio was not above 0.25. Take QDIH: the enrichment ratio is not above 0.25.

As for EVRP, the enrichment ratio is not above 0.25.

Regarding PFKS, the enrichment ratio was not above 0.25.

With VHSH, the enrichment ratio was not above 0.25.

As to ISED, the enrichment ratio was not above 0.25. In the case of PEEM, the enrichment ratio was not above 0.25. As for QQVV, the enrichment ratio is not above 0.25. On to FFIY, for which the enrichment ratio is not above 0.25. Take AQKA: the enrichment ratio was not above 0.25. Regarding THDM, the enrichment ratio is not above 0.25.
